Some of the results follow.
B1: PhoQ; a variant is named by its letters at X, in order, P23837 (parent)
chain: MKKLLRLFFPLSLRVRFLLATAAVVLVLSLAYGMVALIGYSVSFDKTTFRLLRGESNLFYTLAKWENNKLHVELPENIDKQSPTMTLIYDENGQLLWAQRDVPWLMKMIQPDWLKSNGFHEIEADVNDTSLLLSGDHSIQQQLQEVREDDDDAEMTHSVAVNVYPATSRMPKLTIVVVDTIPVELKSSYMVWSWFIYVLSANLLLVIPLLWVAAWWSLRPIEALAKEVRELEEHNRELLNPATTRELTSLVRNLNRLLKSERERYDKYRTTLTDLTHSLKTPLXXLQXXLRSLRSEKMSVSDAEPVMLEQISRISQQIGYYLHRASMRGGTLLSRELHPVAPLLDNLTSALNKVYQRKGVNISLDISPEISFVGEQNDFVEVMGNVLDNACKYCLEFVEISARQTDEHLYIVVEDDGPGIPLSKREVIFDRGQRVDTLRPGQGVGLAVAREITEQYEGKIVAGESMLGGARMEVIFGRQHSAPKDE

Variants of: B1
Experiment: enrichment ratio after two sorts for PhoP signalling (ratio (wild type AVST 3.29)); higher = more functional
Details: with PhoP (E. coli)

Variant	enrichment ratio
DPRC	≤ 0.25
FMHC	≤ 0.25
KVDQ	≤ 0.25
ENFN	≤ 0.25
RPTW	≤ 0.25
WCPS	≤ 0.25
QNRI	≤ 0.25
QGFH	4.44
MKRL	≤ 0.25
EPFY	≤ 0.25
RFKH	≤ 0.25
AWFT	≤ 0.25
SAKR	≤ 0.25
RWMT	≤ 0.25
VFDV	≤ 0.25
IWHI	≤ 0.25
IFYF	≤ 0.25
QKLN	≤ 0.25
GRGI	≤ 0.25
LRYV	≤ 0.25
PQYG	≤ 0.25
PMGC	≤ 0.25
TTFI	≤ 0.25
QMGY	2.49

Variant	enrichment ratio
PVLN	≤ 0.25
YIDA	≤ 0.25
DVRT	≤ 0.25
LYQC	≤ 0.25
NIAF	≤ 0.25
GWFT	≤ 0.25
IWWA	≤ 0.25
TVMF	≤ 0.25
LSPL	≤ 0.25
IQLS	≤ 0.25
ECPE	≤ 0.25
PAKI	≤ 0.25
INCS	≤ 0.25
QYVW	≤ 0.25
FNIH	≤ 0.25
IYKI	≤ 0.25
HIDL	≤ 0.25
TYLH	0.495
SQHH	≤ 0.25
HNPT	≤ 0.25
NTYE	≤ 0.25
PCKT	≤ 0.25
WDIV	≤ 0.25
MCWC	≤ 0.25

Variant	enrichment ratio
FMTS	≤ 0.25
FYSC	≤ 0.25
NWGI	≤ 0.25
HPTA	≤ 0.25
LVPF	≤ 0.25
PGGF	≤ 0.25
ESNG	≤ 0.25
LDET	≤ 0.25
ICAP	≤ 0.25
YNEI	≤ 0.25
QQAP	≤ 0.25
WHSF	≤ 0.25
ISGM	≤ 0.25
RFKC	≤ 0.25
ADEP	≤ 0.25
DGSN	≤ 0.25
HKYR	≤ 0.25
FSCS	≤ 0.25
QLNN	≤ 0.25
MMYW	≤ 0.25
KMRL	≤ 0.25
DACY	≤ 0.25
GTTM	4.35
GYYA	≤ 0.25

Variant	enrichment ratio
HLMS	≤ 0.25
QYII	≤ 0.25
QEDH	≤ 0.25
SHQY	≤ 0.25
IPRW	≤ 0.25
LVLI	≤ 0.25
QAWV	20.2
PDKS	≤ 0.25
DCYS	≤ 0.25
IPDG	≤ 0.25
LESQ	≤ 0.25
GHAT	≤ 0.25
NSGY	≤ 0.25
SFMD	≤ 0.25
RWVS	≤ 0.25
NELP	≤ 0.25
YWKW	≤ 0.25
PHKK	≤ 0.25
GDVP	≤ 0.25
SNMF	19.4
NMGH	≤ 0.25
CLEP	≤ 0.25
IYPA	≤ 0.25
HASQ	≤ 0.25

Variant	enrichment ratio
FLNQ	≤ 0.25
REQI	≤ 0.25
TFYQ	≤ 0.25
MIHW	≤ 0.25
HDMD	≤ 0.25
NNEA	≤ 0.25
NKHA	≤ 0.25
HNCV	≤ 0.25
KGDP	≤ 0.25
LEAQ	1.03
LEHQ	≤ 0.25
DGKP	≤ 0.25
KTHW	≤ 0.25
YQYW	≤ 0.25
EMRT	≤ 0.25
NQRK	≤ 0.25
AEEC	≤ 0.25
VQRK	≤ 0.25
FREQ	≤ 0.25
RFEY	≤ 0.25
GRYN	≤ 0.25
LPAE	≤ 0.25
ESFL	≤ 0.25
YMST	0.652

Variant	enrichment ratio
IHKR	≤ 0.25
VGIR	≤ 0.25
GKQT	≤ 0.25
WEVI	≤ 0.25
KAIM	≤ 0.25
GHSV	≤ 0.25
RQDG	≤ 0.25
ANCC	0.324
HSTF	≤ 0.25
PNFA	≤ 0.25
GGFA	≤ 0.25
LEYI	8.13
LLID	≤ 0.25
TDHP	≤ 0.25
EVYR	≤ 0.25
VFKG	≤ 0.25
QDNR	≤ 0.25
DSHY	≤ 0.25
VYVK	≤ 0.25
FSRD	≤ 0.25
QGDD	≤ 0.25
TKGL	0.899
VSSC	≤ 0.25
GFSF	≤ 0.25

Variant	enrichment ratio
ACLT	11.7
VDCM	≤ 0.25
RENV	≤ 0.25
RTCI	≤ 0.25
FFAT	≤ 0.25
PHTD	≤ 0.25
SCVF	1.3
ANCD	0.285
KDWH	≤ 0.25
SQNY	3.03
PWFV	≤ 0.25
PSVC	≤ 0.25
WMWV	≤ 0.25
INWH	≤ 0.25
GMID	≤ 0.25
RFGP	≤ 0.25
HRDF	≤ 0.25
RISW	≤ 0.25
EDCA	≤ 0.25
STLI	12.4
AFHM	≤ 0.25
MKTA	≤ 0.25
LFMR	≤ 0.25
FNKI	≤ 0.25

Variant	enrichment ratio
SIKT	≤ 0.25
YLKI	≤ 0.25
IRNN	≤ 0.25
SVKK	≤ 0.25
FNYG	≤ 0.25
EAGT	≤ 0.25
MMPC	≤ 0.25
VNSD	≤ 0.25
TLSG	9.01
TICN	6.65
PCLH	≤ 0.25
GDVW	≤ 0.25
TLEQ	≤ 0.25
VKNY	7.12
WVWP	≤ 0.25
NDFR	2.54
VTRA	≤ 0.25
HAII	≤ 0.25
DRVF	≤ 0.25
SVNT	≤ 0.25
FKDI	≤ 0.25
KEAT	≤ 0.25
VMFP	≤ 0.25
WCNK	≤ 0.25

Variant	enrichment ratio
RLMG	≤ 0.25
QTNH	9.19
NWSS	≤ 0.25
MFHR	≤ 0.25
TCYK	3.36
VVAL	≤ 0.25
RMYW	≤ 0.25
CLAF	≤ 0.25
GINP	≤ 0.25
HYDW	≤ 0.25
TTCN	11.9
RCCN	≤ 0.25
LNMI	2.54
RANF	≤ 0.25
NMKN	≤ 0.25
LHTV	≤ 0.25
WMTE	≤ 0.25
MLKA	≤ 0.25
DKNC	≤ 0.25
DCIN	≤ 0.25
FKQS	≤ 0.25
MTMK	≤ 0.25
AMQL	10.2
ELHM	≤ 0.25

Variant	enrichment ratio
MPMW	≤ 0.25
WVDP	≤ 0.25
LQAA	≤ 0.25
VWQH	≤ 0.25
VGFR	≤ 0.25
ACLD	≤ 0.25
TNIH	≤ 0.25
RVHY	≤ 0.25
FPMR	≤ 0.25
DEGD	≤ 0.25
KAFT	≤ 0.25
FYKE	≤ 0.25
YKLH	≤ 0.25
ACVW	≤ 0.25
IHQC	≤ 0.25
TRDK	≤ 0.25
ESRF	≤ 0.25
LMRP	≤ 0.25
VMKE	≤ 0.25
EFQA	≤ 0.25
KMRH	≤ 0.25
HHIW	≤ 0.25
TIQW	≤ 0.25
KRQC	≤ 0.25

Variant	enrichment ratio
HQWF	≤ 0.25
MSKK	≤ 0.25
YKGW	≤ 0.25
TPYP	≤ 0.25
SYKM	≤ 0.25
ENGD	≤ 0.25
SQGL	2.25
NMII	≤ 0.25
RNSE	≤ 0.25
PDDF	≤ 0.25
VHLG	≤ 0.25
PAWQ	≤ 0.25
NGKL	≤ 0.25
IRAI	≤ 0.25
ACRR	≤ 0.25
DSNI	≤ 0.25
FEAV	0.96
TDRR	≤ 0.25
QDMI	≤ 0.25
YMWV	≤ 0.25
KFKD	≤ 0.25
HGNP	≤ 0.25
DERK	≤ 0.25
MTKF	≤ 0.25

Variant	enrichment ratio
QLQC	≤ 0.25
QKFP	≤ 0.25
TIFV	≤ 0.25
VVWS	≤ 0.25
RTYR	≤ 0.25
RQQH	≤ 0.25
DCCA	≤ 0.25
ALQY	≤ 0.25
NRRK	≤ 0.25
LYRT	≤ 0.25
STWE	≤ 0.25
VVKA	≤ 0.25
AEQW	≤ 0.25
GNFP	≤ 0.25
DMCF	≤ 0.25
EVWD	≤ 0.25
ATVY	5.36
MKKD	≤ 0.25
PQFH	≤ 0.25
YLLA	≤ 0.25
GRTF	0.656
WAGP	≤ 0.25
DSKY	≤ 0.25
AAKG	≤ 0.25

Variant	enrichment ratio
VESC	5.05
WPGV	≤ 0.25
GNTC	1.23
FSEG	≤ 0.25
INDC	≤ 0.25
SCER	≤ 0.25
FQWD	≤ 0.25
WYCA	≤ 0.25
VSAR	≤ 0.25
RGIL	≤ 0.25
QPQL	≤ 0.25
RWLA	≤ 0.25
GNPV	≤ 0.25
IKYR	≤ 0.25
VYGV	≤ 0.25
ICYA	≤ 0.25
TFCQ	≤ 0.25
MNRI	≤ 0.25
